Article PMC6919601, “Identification of Plasmodium dipeptidyl aminopeptidase allosteric inhibitors by high throughput screening” (PLoS ONE, 2019)
Out of some 110,000 compounds screened, about 230 (0.21%) showed an effect of 50% or more. The list shows a part of the results.

molecular target: DPAP1 (Plasmodium falciparum, UniProt Q8IIJ9); experiment: primary screen, percent inhibition; read by cleavage of a fluorogenic dipeptide substrate; higher = more effect of the substance; parameters: species or system P. falciparum D10 trophozoite lysates; single well
Sequence (Q8IIJ9 whole entry, looked up): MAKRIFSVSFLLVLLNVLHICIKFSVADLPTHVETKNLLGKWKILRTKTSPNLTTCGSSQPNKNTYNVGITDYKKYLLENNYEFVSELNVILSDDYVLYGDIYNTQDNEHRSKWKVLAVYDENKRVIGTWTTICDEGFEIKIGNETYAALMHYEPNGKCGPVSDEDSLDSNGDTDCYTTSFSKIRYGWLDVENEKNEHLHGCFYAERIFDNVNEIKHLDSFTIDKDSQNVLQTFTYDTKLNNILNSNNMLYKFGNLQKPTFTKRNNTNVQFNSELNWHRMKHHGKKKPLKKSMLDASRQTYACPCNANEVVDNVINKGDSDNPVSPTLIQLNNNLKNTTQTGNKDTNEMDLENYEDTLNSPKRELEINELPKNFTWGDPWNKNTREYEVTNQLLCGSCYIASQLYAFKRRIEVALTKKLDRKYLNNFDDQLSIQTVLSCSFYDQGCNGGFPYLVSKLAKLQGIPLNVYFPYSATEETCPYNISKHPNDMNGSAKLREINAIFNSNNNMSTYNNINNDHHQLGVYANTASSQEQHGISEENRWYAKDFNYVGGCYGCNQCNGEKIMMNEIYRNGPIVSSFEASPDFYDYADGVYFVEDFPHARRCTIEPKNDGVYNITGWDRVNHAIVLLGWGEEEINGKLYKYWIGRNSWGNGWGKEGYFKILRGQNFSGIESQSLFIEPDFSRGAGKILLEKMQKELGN
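Further: 30 min substrate incubation versus DMSO and 10 µM JCP410 controls.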

| Compound | % Inhibition @ 10 uM [%] |
| --- | --- |
| CC1CCN(c2ccc3nnc(CCC(=O)N4CCCC4)n3n2)CC1 | -1.68 |
| Cc1nnc2c(N3CCCC3)nc3ccccc3n12 | -0.788 |
| C=C(C)Cn1c(CCNC(=O)c2ccccc2)nc2ccccc21 | -2.74 |
| CCc1ccc(NC(=O)c2nn(C)c(C)c2Br)cc1 | 7.35 |
| Nc1ccc(Cl)c(C(=O)Nc2ccccc2C(=O)O)c1 | -4.72 |
| COc1ccc(/C=C2\C(=N)N3N=C(N4CCC(C)CC4)SC3=NC2=O)cc1OC | -3.44 |
| CS/C(=C\C(=O)c1ccco1)C(C)C(=O)c1ccco1 (stereo not shown) | 0.583 |
| COc1cc(/C=C2/C(=N)N3C(SCC(C)C)=NSC3=NC2=O)ccc1OCC(=O)O | 6.2 |
| CCOc1ccc(-c2noc(-c3ccco3)n2)cc1OCC | -2.92 |
| CCN(CC)Cc1c(O)ccc2oc(C)c(C(=O)NC3CCCC3)c12 | 0.276 |
| Cc1nc2ccccc2n1C(=O)c1cccs1 | -3.48 |
| Cc1cc(C)c(S(=O)(=O)NCc2nc(N)n(S(=O)(=O)c3c(C)cc(C)cc3C)n2)c(C)c1 | -0.659 |
| Cc1nc2cc(NC(=O)NC3CC3)ccc2n1C | -13 |
| O=C(NC1CCCCC1)C1c2ccccc2C(=O)N1Cc1ccc2c(c1)OCO2 (stereo not shown) | 1.16 |
| COc1ccccc1Cn1c(O)nc2cccnc21 | -2.83 |
| O=C(NCc1cccnc1)Nc1ccc(NC(=O)NCc2cccnc2)cc1 | 3.53 |
| CC(CNC(=O)CCCn1c2ccccc2c2cnnc(O)c21)c1ccccc1 (stereo not shown) | -5.63 |
| C/C(=C(\NC(=O)c1ccccc1)C(=O)O)c1ccc(C)cc1 | -2.84 |
| Cn1ncc(C(=O)N2CCN(Cc3ccccc3)CC2)c1C1CCN(C(=O)OC(C)(C)C)CC1 | -7.36 |
| Cc1ccc(CS(=O)Cc2ccc(C(=O)NC3CCCc4ccccc43)o2)cc1 (stereo not shown) | -3.53 |
| COc1cc(-c2cc(-c3ccccc3)nc(SCC(=O)O)c2C#N)cc(OC)c1OC | 17 |
| CCCN(C(=O)Cc1ccccc1)c1nc(-c2ccccc2)cs1 | -0.704 |
| CCOc1ccccc1N1C(=O)c2ccc(C(=O)NCC(C)C)cc2C1=O | -4.7 |
| COc1ccccc1CNc1nc2c(S(=O)(=O)c3cc(C)ccc3C)nnn2c2ccsc12 | -4.34 |
| Nc1nc(-c2cccc([N+](=O)[O-])c2)nc2c1c(=O)oc1ccccc12 | 3.25 |

| Compound | % Inhibition @ 10 uM [%] |
| --- | --- |
| Cc1ccc(C2=NN(CC(=O)N3CCCCC3)C(=O)CC2)cc1 | 2.18 |
| O=C(NC1CCCCCC1)C1CCN(S(=O)(=O)c2c[nH]cn2)CC1 | 2.9 |
| COc1ccc2nc(NC(=O)CSCCc3ccccn3)sc2c1 | 3.47 |
| O=C(O)C1C2C=CC(O2)C1C(=O)NCCCn1ccnc1 (stereo not shown) | -2.22 |
| CCC(C)NC(=O)C1CCC(=O)N1Cc1ccc(C)cc1 (stereo not shown) | -0.0542 |
| CSC1=C(C#N)C(c2cccs2)C(C(=O)Nc2ccccc2C)=C(C)N1 (stereo not shown) | 2.76 |
| CC(C)CCNCc1c(C(=O)O)n(Cc2ccccc2)c2ccccc12 | 0.277 |
| O=C(O)C1CCCCC1C(=O)Nc1cccc2ccccc12 (stereo not shown) | -0.305 |
| COc1cccc(NC(=O)C2CC(=O)N(c3ccc(Cl)cc3)C2)c1 (stereo not shown) | 3.9 |
| CCCN(CCC)CCNC(=O)c1cn(C)c(=O)c2cc(OC)c(OC)cc12 | -2.49 |
| CN(C)CCCN(C(=O)c1cccc(C(F)(F)F)c1)c1nc2c(F)cccc2s1 | 2.01 |
| NC(=O)c1c(NC(=O)c2cc(Br)ccc2Cl)sc2c1CCC2 | 7 |
| CCOc1ccccc1CNC(=O)Cn1nc(C)c2sc3ccccc3c2c1=O | -5.44 |
| Cc1sc2ncnc(SCc3ccc(F)cc3)c2c1C | 2.56 |
| COc1ccccc1C(=O)/C=C(\O)C(=O)Nc1sc2c(c1C#N)CCC2 | 0.738 |
| CC1CCN(c2nc(Cc3ccc(Cl)cc3Cl)nc3c2nnn3C)CC1 | 0.0367 |
| O=C(NCCNC(=O)C(F)(F)F)c1ccncc1 | -5.38 |
| COc1ccc(OC)c(NC(=O)CCCN2C(=O)c3ccccc3C2=O)c1 | -5.46 |
| CCO/C=N/C1=C(C#N)C(c2ccccc2)C2=C(CC(C)(C)CC2=O)O1 (stereo not shown) | -0.233 |
| CCS(=O)(=O)C1=NSC2=NC(=O)/C(=C\c3ccc(OCCOc4ccccc4)cc3)C(=N)N21 | -1.58 |
| CS(=O)(=O)N1CCCC(C(=O)NCc2ccco2)C1 (stereo not shown) | 5.35 |
| COc1ccc(CNCc2c(F)cccc2F)cc1OC | -6.94 |
| C=CCOc1nc2c(c(=O)n(C)c(=O)n2C)n1Cc1cccc(Cl)c1 | 3.6 |
| CC(=O)Nc1ccc(-c2cn3cccc(C)c3n2)cc1 | -11.4 |
| Cc1ccc(C)c(NC(=O)c2ccc(C(=O)Nc3cc(C)ccc3C)cc2)c1 | 0.526 |

| Compound | % Inhibition @ 10 uM [%] |
| --- | --- |
| CC(C)CC(=O)Nc1nn2c(C(C)C)nnc2s1 | 1.64 |
| CCOC(=O)N1CCC(NC(=O)c2cccc3c2C(=O)N(Cc2cccnc2)C3)CC1 | -2.29 |
| Cc1ccc(C)c(Cn2c(N3CCC(C(=O)NCc4ccco4)CC3)nc3ccccc32)c1 | -5.03 |
| Cc1ccc2oc(=O)c3cnn(CC(=O)NCCc4c[nH]c5ccccc45)c3c2c1 | 3.2 |
| Cc1ccc2c(cnn2C(=O)CCC(=O)NCc2ccco2)c1 | -2.88 |
| O=C(c1cccc(Cl)c1)N1CCN(c2ncccn2)CC1 | 0.138 |
| CC12CN3CC(C)(CN(C1)C3(CCC(=O)O)C(=O)O)C2=O (stereo not shown) | -2.44 |
| Cc1nc2ccccn2c1-c1csc(Nc2ccc(C(=O)O)cc2)n1 | 7.24 |
| N#CCNC(=O)C(CC1CCCCC1)C(=O)NC1CCCCC1 (stereo not shown) | -0.214 |
| O=C(O)CN1C(=O)S/C(=C\c2cccn2-c2cccc(Br)c2)C1=O | -1.6 |
| CCOc1ccc(/C=N\n2cnnc2)cc1OCC | 11.9 |
| Cc1cc(C)c2c(n1)sc1c(=O)n(-c3ccccc3)c(=O)[nH]c12 | -1.32 |
| CCCOc1ccc2ccccc2c1/C=C1\SC(=O)NC1=O | 0.751 |
| Brc1ccc2ncnc(-c3ccccc3)c2c1 | -1.32 |
| CCOC(=O)c1c(NC(=O)c2ccnn2C)sc(C)c1C | 6.08 |
| CCOC(=O)c1c(NC(=O)Cn2cnc3ccccc32)sc2c1CCCC2 | 6.08 |
| CN(C)c1ccc(/C=C/C(C)(O)c2ccccc2)cc1 (stereo not shown) | -2.63 |
| COc1ccccc1CNC(=O)CNC(=S)N(Cc1ccccc1)Cc1cccs1 | 1.27 |
| Cc1cc(F)ccc1NC(=O)c1sc2nc(-c3ccncc3)ccc2c1N | 3.53 |
| COc1ccc(OC)c(N(CC(=O)Nc2ccc(F)cc2)S(=O)(=O)c2ccccc2)c1 | -4.43 |
| Cc1cccc(N2CCN(C(=O)C3CC4CCC3C4)CC2)c1C (stereo not shown) | -0.267 |
| CO/C(O)=C1/C(C)=NC2=C(C(=O)CC(C)(C)C2)C1c1ccc(SC)cc1 (stereo not shown) | 1 |
| CS(=O)(=O)c1nc(S(=O)(=O)c2ccc(Cl)cc2)c(NCCCN2CCOCC2)s1 | -0.522 |
| Cc1ccc(CN2C(=O)CCC2C(=O)NCCc2ccc(Cl)cc2)cc1 (stereo not shown) | 1.62 |
| CCc1ccc(/C(O)=C/c2nc3ccccc3nc2O)cc1 | 3.15 |

| Compound | % Inhibition @ 10 uM [%] |
| --- | --- |
| Nc1ccc(Nc2nc(-c3ccc(Cl)cc3)cs2)cc1 | -6.43 |
| Cc1cccc(CCNC(=O)c2cc3ccc4cccnc4c3[nH]2)c1 | 1.06 |
| CCOc1ccc(-c2nonc2NC(=O)c2oc3ccccc3c2C)cc1OCC | -1.47 |
| NC(=O)c1cc(NC(=O)c2ccc(F)cc2)cc(C(N)=O)c1 | 0.843 |
| O=C(Nc1ccc(F)cc1)c1cnccn1 | -1.54 |
| COc1ccccc1/C=C1\SC(=O)N(CCC(=O)N2CCOCC2)C1=O | 23.6 |
| NC(=O)C1CCN(C(=S)NC(=O)c2ccc(Cl)cc2)CC1 | 4.7 |
| Cc1ccccc1CCNC(=O)CCn1ccc2cc(S(=O)(=O)N3CCCC3)ccc21 | 3.99 |
| CC(=O)c1c(S)nc(-c2ccccc2)nc1Nc1ccccc1Cl | 4.54 |
| CC1CCCC(N(C)C(=O)C2CCC(CNS(=O)(=O)c3cccc4nsnc34)CC2)C1C (stereo not shown) | 1.26 |
| CCN(CC)C(=O)Cn1cc(SCC(=O)NCc2ccc(C)cc2)c2ccccc21 | 3.25 |
| O=c1/c(=C/c2cccc3ccccc23)sc2nc(-c3ccccc3)nn12 | -3.33 |
| COc1ccc(S(=O)(=O)NC2CCSC2=O)cc1 (stereo not shown) | 0.815 |
| Cc1cc(C)cc(NS(=O)(=O)c2ccc(NC(=O)C(F)(F)F)cc2)c1 | -2.76 |
| CC1CCN(C(=O)CSc2nnc(Cc3cccn3C)n2-c2ccc(Cl)cc2)CC1 | -3.1 |
| O=S(=O)(NCCNS(=O)(=O)c1cccc2cccnc12)c1cccc2cccnc12 | -2.37 |
| CCc1c(C#N)c(SC)nc(C)c1C(=O)Nc1ccccc1 | 1.43 |
| NC(=O)C1(N2CCCCC2)CCN(S(=O)(=O)c2ccc(-c3ccccc3)cc2)CC1 | 1 |
| Cc1nc(C)c(C(=O)NCc2nc3ccccc3[nH]2)s1 | 5.54 |
| CCc1ccc(-c2cn3nc(C(CC)CC)sc3n2)cc1 | -0.946 |
| Cc1ccc(S(=O)(=O)N2CCN(CCCOc3cc(C)ccc3C)CC2)cc1 | 3.94 |
| Cc1ccc(CNC(=O)C(NS(=O)(=O)c2cccc3nsnc23)c2ccccc2)cc1 (stereo not shown) | 10.9 |
| COc1ccc(-c2cc3c(=O)n(CC(=O)NC(C)c4ccccc4)ncn3n2)cc1 (stereo not shown) | -1.08 |
| COc1ccc(C(=O)Nc2nnc(CC(C)(C)C)s2)cc1OC | -3.33 |
| Cc1ccc(CNC(=O)CCn2ccc(C)n2)cc1 | -5.52 |
